The values that follow come from PubChem BioAssay AID1347073 (National Center for Advancing Translational Sciences (NCATS), 2019).

Among all 45,000 compounds or so, about 200 (0.44%) were called active. Not shown: some 7% with an inconclusive outcome. Calls come from the whole dose curve; as a rule, active = well fitted activation curve with a large enough effect; inconclusive = small, poorly fitted or top-dose-only effect; inactive = no such curve, though single readings can be large or run the other way. The list shows a part of the results.

The nature of the assay: qHTS of TDP-43 Inhibitors: NCGC Sytravon Library Screen. Note: 0% is about no effect; nearly all actives have a fitted effect of over 55% in size. The conditions noted are these: yeast TDP-43 toxicity rescue, BacTiter-Glo growth, 24 h; series mostly up to 46.1 µM; growth rescue (activation): at the top concentration. The gist of the method:
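TDP-43-expressing yeast, pregrown in raffinose, seeded at OD600 0.02 in galactose medium with compound for 24 hr at 30 deg C. Growth read by BacTiter-Glo luminescence, so rescue of toxicity appears as activation.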
(In qHTS, concentration-response curves come from the screen itself.)
For `CN(C)C(CNC(=O)c1ccc(NC(=O)c2cccs2)cc1)c1ccccc1` (configuration not stated), the “growth rescue (activation)” value was inactive: 9.49%.
To `COc1cccc(CNC(=O)c2cnc(-c3ccccn3)nc2C(F)(F)F)c1` belongs inactive: 34.9%.
To `Cc1ccc(Nc2cnn(C34CC5CC(CC(CC(=O)O)(C5)C3)C4)c(=O)c2Cl)c(Cl)c1` belongs inactive: -10.4%.
To `COc1cc(F)ccc1-c1csc(C(C)(O)c2ccc(F)c(F)c2)n1` (configuration not stated) belongs inactive: -90.4%; to `Cc1ccc(-c2nnn(CC(=O)N(C)C3CCCCC3)n2)o1`, inactive: -4.49%.
Regarding `O=C(CSc1nc2ccccc2n1CC(=O)N1CCCCC1)N1CCCCC1`, the “growth rescue (activation)” value is inactive: 14.3%.
For the compound `N#Cc1cccc(C(=O)Nc2cc(S(=O)(=O)N3CCOCC3)ccc2N2CCCC2)c1`, the “growth rescue (activation)” value is inactive: -32.1%.
With `Cc1cc(NC(=O)Nc2cccc(Cl)c2)n(C(C)(C)C)n1`, the “growth rescue (activation)” value was inactive: 2.53%.
To `CCOc1ncccc1C(=O)OCC(=O)Nc1cc(C(C)(C)C)ccc1OC` belongs inactive: 19.4%; to `CSc1n[nH]c2nc3c(c(=O)n12)C1(CCCCC1)Cc1ccccc1-3`, inactive: -5.73%.
For the compound `CCN(CC)S(=O)(=O)c1ccc(C)c(NC(=O)COC(=O)[C@@H]2CCCN2C(=O)c2cccs2)c1`, the “growth rescue (activation)” value is inactive: 11.3%.
To `COc1ccccc1/C=C/C(=O)Nc1ccc2c(c1)CCC2` belongs inactive: 12%; to `CN=C1NN=C(c2cc(C)n(-c3c(C)n(C)n(-c4ccccc4)c3=O)c2C)CS1`, inactive: 0.473%; to `CC1(C(=O)NS(=O)(=O)c2ccc(Cl)cc2)CCN1C(=O)c1ccccc1` (configuration not stated), inactive: 20.3%.
To `Cc1ccc2nc(SCC(=O)Nc3cccc(S(=O)(=O)N(C)C)c3)[nH]c2c1` belongs inactive: 6.14%; to `CC(CC(=O)Nc1ccc2c(c1)c(=O)n(C)n2Cc1cccc(C(F)(F)F)c1)C(F)(F)F` (configuration not stated), inactive: 14%.
To `COc1cc(/C=N/NC(=O)c2ccc(Cl)c(S(N)(=O)=O)c2)ccc1OCC(N)=O` belongs inactive: 7.94%; to `Cc1ccc(Nc2nc(NCCO)c3ccccc3n2)cc1C`, inactive: 16.2%; to `CC(C)(C)c1nnc(NC(=O)COc2ccc3c(c2)OCO3)s1`, inactive: -15.5%.
Consider `Clc1ccc(-c2csc(Nc3ccccc3)[n+]2Cc2ccco2)c(Cl)c1`, for which the “growth rescue (activation)” value is inactive: 35.6%.
To `CC1CCCC(NC(=O)CSc2n[nH]c(N)n2)C1C` (configuration not stated) belongs inactive: 23.6%.
`Cc1ccc(N(C(=O)c2snc(C(N)=O)c2N)C(C(=O)NC2CCCC2)c2ccncc2)cc1` (configuration not stated): the “growth rescue (activation)” value is inactive: -6.79%.
To `CCCCNC(=O)COC(=O)c1cc(C)oc1C` belongs inactive: 6.75%; to `O=C(Cn1ccc2ccccc2c1=O)NCC(=O)N1CCN(c2ccccc2F)CC1`, inactive: 7.82%; to `CCn1c(C)cc(/C=C2/SC(=S)NC2=O)c1C`, inactive: 3.23%.
To `CCn1cc(C(=O)O)c(=O)c2cc(F)c(N3CCN(C(=S)NC(=O)c4ccc(F)cc4)CC3)cc21` belongs inactive: -7.62%; to `O=C(NC1CCCCC1)C1CCCN1S(=O)(=O)c1ccc(F)cc1` (configuration not stated), inactive: 15.5%.
To `COC(=O)c1cc(COC(=O)c2nc3nccc(C)n3n2)oc1C` belongs inactive: 9.91%; to `N#Cc1c(Cl)nc(N/N=C/c2ccccc2)c(Cl)c1Cl`, inactive: 17.7%; to `CCOc1ccc(CCNc2nc3ccc(C)cc3n3cnnc23)cc1OCC`, inactive: 24.3%.
Regarding `NS(=O)(=O)c1ccc(CCNC(=O)CN2C(=O)NC(c3ccccc3)(c3ccccc3)C2=O)cc1`, the “growth rescue (activation)” value was inactive: 12.9%.
To `CN(C)C(CNC(=O)CCCN1C(=O)c2cccc3cccc(c23)C1=O)c1ccccc1` (configuration not stated) belongs inactive: -6.68%; to `O=S1(=O)NC(=NCCOCCO)c2ccccc21`, inactive: -6.82%; to `O=c1cc(CSc2ccc(Cl)cc2)nc(-c2ccccc2)[nH]1`, inactive: -0.611%.
To `O=C(Cn1c(=O)n(Cc2ccc(F)cc2)c(=O)c2ccccc21)NCC1CCCO1` (configuration not stated) belongs inactive: -9.39%; to `O=c1c2c([nH]c3ccccc13)CCCCC2`, inactive: -4.02%; to `NC(Cc1ccc(F)cc1)c1csc(Nc2cc(NCc3ccco3)ncn2)n1` (configuration not stated), inactive: 14.6%.
To `CCN1CCN(c2nc3ccccn3c(=O)c2/C=C(\C#N)S(=O)(=O)c2ccccc2)CC1` belongs inactive: 0.404%; to `CCOCCCn1c(SCc2ccccc2)nnc1-c1ccncc1`, inactive: 6.22%; to `O=C(NC1=C(Nc2ccc(F)cc2)C(=O)c2ccccc2C1=O)c1ccc(Cl)cc1`, inactive: 8.38%.
For `Cc1c(NC(=O)CN2CCN(c3cccc(Cl)c3)CC2)c(=O)n(-c2ccccc2)n1C`, the “growth rescue (activation)” value was inactive: -5.09%.
To `COc1cccc(C(Nc2ccccn2)c2oc(CO)cc(=O)c2O)c1` (configuration not stated) belongs inactive: 3.79%; to `Cc1ccc2nc(/C(C#N)=C\c3ccc(Oc4ccc(C(F)(F)F)cc4[N+](=O)[O-])cc3)[nH]c2c1`, inactive: 22.8%; to `COCCC(=O)N1CCc2c([nH]c3ccccc23)C1C(C)(C)C` (configuration not stated), inactive: 12%.
To `Cc1cnc(C(=O)Nc2ccc(S(=O)(=O)NCC(C)C)cc2)cn1` belongs inactive: 2.15%; to `CCCC(=O)N1CCCC1(C)C(=O)Nc1cc(OC)c(OC)c(OC)c1` (configuration not stated), inactive: 1.17%.
To `CCc1nc2ccc(C(=O)Nc3ccc4c(c3)OCC(=O)N4)cn2c1N(CC)Cc1cccc(Br)c1` belongs inactive: -11.6%; to `CCOC(=O)CC(NC(=O)CCc1c(C)nc2ncnn2c1C)c1ccc(OC(C)C)cc1` (configuration not stated), inactive: 7.88%.
`CC1(c2ccccc2Br)NC(=O)N(CC(=O)N2CCc3ccccc3C2)C1=O` (configuration not stated): the “growth rescue (activation)” value is inactive: 12%.
To `COc1ccc(CNC(=O)C2CCC(CNS(=O)(=O)c3cccs3)CC2)cc1` (configuration not stated) belongs inactive: 15.1%; to `Cc1ccccc1-n1c(SCC(=O)N2CCN(c3ccccn3)CC2)nnc1N1CCOCC1`, inactive: 6.58%.
To `Cc1ccc(S(=O)(=O)N(C)CC(=O)N2CCN(Cc3ccccc3)CC2)cc1` belongs inactive: -5.77%.
